From article PMC2844433
These are yes or no findings as the source states them, for the method shown. In cells and extracts the contact can be indirect. Some binding calls cover weakened binding; strength is not graded here. For some assays here: Where a sequence is shown, tags or fusion partners need not be part of it.

Chains of the proteins cited; added tags and fusions are not shown. Lines headed by an entry give the natural chain unless they say otherwise; changes in a name come on top. Residues count along the entry.
UniProt P06748: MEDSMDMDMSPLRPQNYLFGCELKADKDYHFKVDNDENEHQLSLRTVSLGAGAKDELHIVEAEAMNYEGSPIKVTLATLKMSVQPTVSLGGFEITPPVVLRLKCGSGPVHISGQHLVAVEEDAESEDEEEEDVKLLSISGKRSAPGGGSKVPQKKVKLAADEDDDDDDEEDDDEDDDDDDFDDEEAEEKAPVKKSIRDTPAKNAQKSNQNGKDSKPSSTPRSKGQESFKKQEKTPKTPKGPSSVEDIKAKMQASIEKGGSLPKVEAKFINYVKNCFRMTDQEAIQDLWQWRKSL
GST-NPM/B23-(aa 1–220): residues 1-220 of P06748
GST-NPM/B23-(aa 1–120): residues 1-120 of P06748
GST-NPM/B23-(aa 120–294): residues 120-294 of P06748
GST-NPM/B23-(aa 220–294): residues 220-294 of P06748

Assays:
Myc-Plk2 KD = target: T1, Myc-Plk2 KD (UniProt Q9NYY3); experiment: co-IP; 293T cells transfected with Flag-NPM/B23 and Myc-Plk2 KD or with Myc-Plk2 KD alone; anti-Flag or anti-Myc immunoprecipitation; lysis buffer 40 mM Tris-HCl pH 7.5, 0.5% NP-40, 150 mM NaCl; Western blot
T1 sequence: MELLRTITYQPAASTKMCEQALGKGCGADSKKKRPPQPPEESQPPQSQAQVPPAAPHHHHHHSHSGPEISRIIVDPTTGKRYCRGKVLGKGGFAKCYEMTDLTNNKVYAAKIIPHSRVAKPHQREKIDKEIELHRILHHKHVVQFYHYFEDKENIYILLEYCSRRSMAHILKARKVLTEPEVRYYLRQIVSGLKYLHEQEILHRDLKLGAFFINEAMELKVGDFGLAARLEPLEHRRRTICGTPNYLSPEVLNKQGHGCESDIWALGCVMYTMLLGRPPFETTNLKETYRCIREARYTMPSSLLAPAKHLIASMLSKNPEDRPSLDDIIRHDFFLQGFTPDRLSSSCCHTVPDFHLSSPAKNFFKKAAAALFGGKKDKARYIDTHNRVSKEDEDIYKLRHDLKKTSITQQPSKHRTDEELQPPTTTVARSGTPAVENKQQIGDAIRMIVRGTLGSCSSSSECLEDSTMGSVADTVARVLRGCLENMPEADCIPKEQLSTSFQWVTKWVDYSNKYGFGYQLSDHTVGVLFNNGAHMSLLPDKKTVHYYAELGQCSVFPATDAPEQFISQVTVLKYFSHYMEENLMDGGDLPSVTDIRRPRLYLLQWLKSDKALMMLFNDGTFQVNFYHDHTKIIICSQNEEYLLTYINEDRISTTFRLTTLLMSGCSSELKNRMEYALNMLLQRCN

[1] = target: Polo-like kinase 2 (Plk2), endogenous in HeLa cells (human (endogenous in HeLa)) (UniProt Q9NYY3); experiment: co-IP; endogenous Plk2 immunoprecipitated from HeLa lysates with specific antibodies; immunoblot with NPM/B23 antibodies; random IgG as control
[2] = target: T2, Zz-tagged Plk2 KD (kinase dead) (UniProt Q9NYY3); experiment: pull-down; Zz-tagged Plk2 WT or KD bound to IgG sepharose, incubated with 10 mg HeLa extract for 3 h at 4°C; eluted with 200 mM NaCl, then 1 M NaCl; Western blot; only the target purified
T2 sequence: T1 sequence

[3] = target: Zz-tagged kinase active Plk2 (Plk2 WT) (UniProt Q9NYY3); experiment: as above
GST-NPM/B23-(aa 120–294) = GST-NPM/B23-(aa 120–294) (UniProt P06748); experiment: pull-down; 25 µg GST-NPM/B23 truncated versions bound to glutathione agarose, incubated with 8 µl in vitro translated [35S]-methionine-labeled HA-Plk2 in PBS with 0.05% NP-40 for 2 h at 4°C; autoradiography; only the target purified
GST-NPM/B23-(aa 1–120) = GST-NPM/B23-(aa 1–120) (UniProt P06748); experiment: as above
GST-NPM/B23-(aa 1–220) = GST-NPM/B23-(aa 1–220) (UniProt P06748); experiment: as above
GST-NPM/B23-(aa 220–294) = GST-NPM/B23-(aa 220–294) (UniProt P06748); experiment: as above

For “NPM/B23 (Nucleophosmin), endogenous in 293T cells (from UniProt P06748 1-294)”, the binding (Myc-Plk2 KD) was “binds”.
For “NPM/B23 (Nucleophosmin), endogenous in HeLa cells (from UniProt P06748 1-294)”, the binding [1] was “binds”, the binding [2] was “binds” and the binding [3] was “binds”.
In the case of “in vitro translated [35S]-HA-Plk2 (from UniProt Q9NYY3 1-685) (enzyme)”, the binding (GST-NPM/B23-(aa 120–294)) is reported as “binds”, the binding (GST-NPM/B23-(aa 1–120)) is reported as “no binding” and the binding (GST-NPM/B23-(aa 1–220)) is reported as “no binding”. The binding (GST-NPM/B23-(aa 220–294)) was “binds”.
